Measurements taken from the supplement of paper PMC12009370.
Some of the results follow. Single values are uncertain, as repeats are few or missing.

Key:
[1] = system: IMR-32; experiment: drug sensitivity score (DSS), single drug with vehicle (DSS (score)); higher = more cytotoxic; extreme values may be limits of the assay; conditions: 72 h; co-treatment: vehicle (DMSO)
[2] = system: SK-N-AS; experiment: as above; conditions: 72 h; co-treatment: vehicle (DMSO)
[3] = system: SK-N-AS; experiment: drug sensitivity score (DSS) in combination with SL-176 (DSS (score)); higher = more cytotoxic; extreme values may be limits of the assay; conditions: 72 h; co-treatment: SL-176 11.2 uM (IC25 in IMR-32)
[4] = system: IMR-32; experiment: as above; conditions: 72 h; co-treatment: SL-176 11.2 uM (IC25 in IMR-32)
[5] = system: SK-N-AS; experiment: drug sensitivity score (DSS) in combination with GSK2830371 (DSS (score)); neuroblastoma lines; SL-176 and GSK2830371 are WIP1 inhibitors; higher = more cytotoxic; extreme values may be limits of the assay; conditions: 72 h; co-treatment: GSK2830371 at IC25 in IMR-32
[6] = system: IMR-32; experiment: as above; conditions: 72 h; co-treatment: GSK2830371 at IC25 in IMR-32
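Throughout, for drug sensitivity score (DSS) in combination with GSK2830371: neuroblastoma cells in 384-well plates, each compound at five concentrations, luminescence read-out, DSS derived from fitted concentration-response curve combining IC50 with minimum and maximum inhibition.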
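Throughout, for drug sensitivity score (DSS) in combination with SL-176: cells in 384-well plates, luminescence read-out, each screening drug at five concentrations, DSS derived from the fitted concentration-response curve combining IC50 with minimum and maximum inhibition.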
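Throughout, for drug sensitivity score (DSS), single drug with vehicle: 384-well screen with five concentrations per compound and a luminescence read-out, DSS computed from the fitted dose-response curve combining IC50 with minimum and maximum inhibition.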

Row | Structure (SMILES) | drug sensitivity score [1] | drug sensitivity score [2] | drug sensitivity score [3] | drug sensitivity score [4] | drug sensitivity score [5] | drug sensitivity score [6]
1 | Nc1ncn([C@H]2C[C@H](O)[C@@H](CO)O2)c(=O)n1 [Decitabine] | 14.2 | 0 | 0.1 | 19.9 | 0 | 17.4
2 | CC1=C(/C=C/C(C)=C/C=C/C(C)=C/C(=O)O)C(C)(C)CCC1 [Tretinoin] | 0 | 0 | 0.8 | 0 | 0.2 | 1.8
3 | COC(=O)c1ccc([C@H]2c3[nH]c4ccccc4c3C[C@H](C(=O)OC)N2C(=O)CCl)cc1 | 0.5 | 0 | 0 | 0 | 0 | 0
4 | CNc1ncc2cc(-c3cc(NC(=O)NCCC(C)(C)C)c(F)cc3C)c(C)nc2n1 | 8.7 | 18.8 | 17.5 | 6.3 | 17.7 | 9.6
5 | COc1cc2c(cc1OC(C)C)[C@H](c1ccc(Cl)cc1)N(c1ccc(N(C)C[C@H]3CC[C@H](N4CCN(C)C(=O)C4)CC3)cc1)C(=O)C2 | 21.6 | 4.8 | 6.4 | 23 | 6.2 | 24.8
6 | Nc1nc2cc(-c3ccc4ncc(C(=O)N5CCOCC5)n4c3)ccc2o1 [Serabelisib] | 1.1 | 5.2 | 4.1 | 1.6 | 4.9 | 5.2
7 | CC(C)NC(=O)COc1cccc(-c2nc(Nc3ccc4[nH]ncc4c3)c3ccccc3n2)c1 | 8.4 | 10.9 | 12.4 | 10.1 | 10.9 | 8.4
8 | O=C(O)c1ccc(-c2c[nH]c3ncc(-c4ccccc4)cc23)cc1C1CCCC1 | 5.2 | 1.6 | 0.8 | 2.8 | 2.6 | 5.7
9 | O=C(/C=C/c1cccc(S(=O)(=O)Nc2ccccc2)c1)NO [Belinostat] | 21 | 20.6 | 18.8 | 20.6 | 21.6 | 24.3
10 | CC(C)C(=O)Nc1ccc([N+](=O)[O-])c(C(F)(F)F)c1 [Flutamide] | 0 | 0 | 0 | 1.9 | 0 | 2.1
11 | NS(=O)(=O)NCCNc1nonc1/C(=N/O)Nc1ccc(F)c(Br)c1 [Epacadostat] | 0 | 0.5 | 0 | 0 | 0.3 | 0.1
12 | C[C@@H](Oc1cc(-n2cnc3ccc(CN4CCN(C)CC4)cc32)sc1C(N)=O)c1ccccc1C(F)(F)F | 36.6 | 33.6 | 34.5 | 39.8 | 34.6 | 36.3
13 | CC(C)(C)c1cc(NC(=O)Nc2ccc(-c3cn4c(n3)sc3cc(OCCN5CCOCC5)ccc34)cc2)no1 [Quizartinib] | 4.9 | 3.7 | 4.3 | 4.5 | 5 | 2.9
14 | O=C(NCc1ccncc1)C12CC3CC(C1)CC(c1ccc(Cl)cc1)(C3)C2 | 9.2 | 4.4 | 6 | 9.4 | 5.5 | 9.8
15 | CCNC(=O)CCC/C=C\C[C@@H]1[C@@H](/C=C/[C@@H](O)CCc2ccccc2)[C@H](O)C[C@@H]1O [Bimatoprost] | 0.1 | 0 | 0 | 1.1 | 0 | 0
16 | CC[C@@H]1C(=O)N(C)c2cnc(Nc3ccc(C(=O)N[C@H]4CC[C@H](N5CCN(CC6CC6)CC5)CC4)cc3OC)nc2N1C(C)C [Volasertib] | 20.9 | 18.7 | 20.2 | 21.4 | 20 | 21.6
17 | CNC(=O)c1ccc2cc([C@@]3(O)CCn4cncc43)ccc2c1 [Orteronel] | 0 | 0 | 0 | 0 | 0 | 0
18 | CCN(c1cc(-c2ccc(CN3CCOCC3)cc2)cc(C(=O)NCc2c(C)cc(C)[nH]c2=O)c1C)C1CCOCC1 [Tazemetostat] | 0.2 | 0 | 0 | 0 | 0 | 1.6
19 | CNCc1ccc(-c2[nH]c3cc(F)cc4c3c2CCNC4=O)cc1 [Rucaparib] | 10.4 | 0 | 0.1 | 13.2 | 0 | 17.4
20 | N#CC1(c2ccc(NC(=O)c3cccnc3NCc3ccncc3)cc2)CCCC1 [Apatinib] | 0 | 0 | 0 | 0 | 0 | 0
21 | CC(C)(C)c1nc(-c2cccc(NS(=O)(=O)c3c(F)cccc3F)c2F)c(-c2ccnc(N)n2)s1 [Dabrafenib] | 0 | 1.1 | 0.8 | 0 | 0.8 | 0
22 | C#Cc1cccc(Nc2ncnc3cc4c(cc23)OCCOCCOCCO4)c1 [Icotinib] | 0.1 | 0.2 | 0.5 | 0 | 0.1 | 0
23 | O=C1CN2Cc3c(ccc(Cl)c3Cl)N=C2N1 [Anagrelide] | 0 | 0 | 0 | 0 | 1.3 | 0

Row | Structure (SMILES) | drug sensitivity score [1] | drug sensitivity score [2] | drug sensitivity score [3] | drug sensitivity score [4] | drug sensitivity score [5] | drug sensitivity score [6]
24 | Cn1cc(-c2cnn3c(N)c(Br)c([C@@H]4CCCNC4)nc23)cn1 | 3.1 | 3.3 | 3.7 | 3.8 | 4.5 | 4.3
25 | CO[C@H]1CC[C@H](N2C(=O)CNc3ncc(-c4ccc(C(C)(C)O)nc4)nc32)CC1 | 8.7 | 6.2 | 5.2 | 7 | 6.5 | 8.2
26 | CON(C)C(=O)N1N=C(c2cc(F)ccc2F)S[C@@]1(CCCN)c1ccccc1 [Filanesib] | 23.2 | 22.2 | 23.5 | 26.7 | 22.2 | 27.9
27 | CO[C@H]1C(=O)[C@]2(C)[C@@H](OC)C[C@H]3OC[C@@]3(OC(C)=O)[C@H]2[C@H](OC(=O)c2ccccc2)[C@]2(O)C[C@H](OC(=O)[C@H](O)[C@@H](NC(=O)OC(C)(C)C)c3ccccc3)C(C)=C1C2(C)C [Cabazitaxel] | 45 | 28.4 | 28.3 | 43.6 | 28.7 | 43.7
28 | Cc1nc(-c2cn3c(n2)-c2ccc(-c4cnn(C(C)(C)C(N)=O)c4)cc2OCC3)n(C(C)C)n1 [Taselisib] | 1 | 3.5 | 5.5 | 4.5 | 4.3 | 5.6
29 | Cc1cc2c(C(=O)NC[C@H](C)c3ccccc3)c(O)c(O)cc2c(O)c1-c1c(C)cc2c(C(=O)NC[C@H](C)c3ccccc3)c(O)c(O)cc2c1O [Sabutoclax] | 28.8 | 21.3 | 22.1 | 31.7 | 26 | 31.8
30 | COc1cccc2c1C(=O)c1c(O)c3c(c(O)c1C2=O)C[C@@](O)(C(=O)CO)C[C@@H]3O[C@H]1C[C@H](N)[C@@H](O)[C@H](C)O1 [Epirubicin] | 24.3 | 7.8 | 5.8 | 24.8 | 8.3 | 25.2
31 | NC(=O)NO [Hydroxyurea] | 11.9 | 6.6 | 6.1 | 9 | 6.5 | 10.6
32 | Cc1ncc(-c2ccnc(Nc3ccc(S(C)(=O)=O)cc3)n2)n1C(C)C | 13 | 5.6 | 6.9 | 14 | 6.8 | 13.3
33 | CCn1cc(-c2ccnc3[nH]c(-c4cccc(CN(C)C)c4)cc23)c(-c2ccc(NC(=O)N(C)C)cc2)n1 | 27.9 | 5.6 | 3.5 | 30.2 | 5 | 27.2
34 | CO[C@H]1C[C@@H]2CC[C@@H](C)[C@@](O)(O2)C(=O)C(=O)N2CCCC[C@H]2C(=O)O[C@H]([C@H](C)C[C@@H]2CC[C@@H](O)[C@H](OC)C2)CC(=O)[C@H](C)/C=C(\C)[C@@H](O)[C@@H](OC)C(=O)[C@H](C)C[C@H](C)/C=C/C=C/C=C/1C [Sirolimus] | 13.7 | 6 | 5.7 | 3.2 | 7.2 | 6.5
35 | COc1ccc(-c2ccc3ncc4c(c3c2)n(-c2ccc(N3CCNCC3)c(C(F)(F)F)c2)c(=O)n4C)cn1 | 12.8 | 19.3 | 18.2 | 13.9 | 19.5 | 13.3
36 | Cc1ccc(C(=O)Nc2ccc(Oc3cc4cnn(C)c4cc3-c3cn[nH]c3)c(F)c2)c(=O)n1-c1ccc(F)cc1 [Merestinib] | 0.5 | 0 | 0 | 0.8 | 0 | 1.2
37 | COc1cc(C)c(/C=C/C(C)=C/C=C/C(C)=C/C(=O)O)c(C)c1C [Acitretin] | 0 | 1.2 | 0.8 | 0 | 1.9 | 0
38 | Cc1c2oc3c(C)ccc(C(=O)N[C@@H]4C(=O)N[C@H](C(C)C)C(=O)N5CCC[C@H]5C(=O)N(C)CC(=O)N(C)[C@@H](C(C)C)C(=O)O[C@@H]4C)c3nc-2c(C(=O)N[C@@H]2C(=O)N[C@H](C(C)C)C(=O)N3CCC[C@H]3C(=O)N(C)CC(=O)N(C)[C@@H](C(C)C)C(=O)O[C@@H]2C)c(N)c1=O [Dactinomycin] | 44.5 | 26.3 | 26.6 | 42.2 | 27.2 | 43.3
39 | COc1ccc(S(=O)(=O)Nc2cccnc2Nc2ccc(O)cc2)cc1 | 21.4 | 16.2 | 16.2 | 21.7 | 17.2 | 23.7
40 | CN1CC[C@@H](NC(=O)Nc2ccc(C#N)cc2)C[C@@H]1c1nc2ccccc2[nH]1 [Glasdegib] | 0 | 0 | 0 | 0 | 0 | 0
41 | Cc1cc(C)c(CNC(=O)c2cc(-c3ccc(CN4CCOCC4)cc3)cc3c2cnn3C2CCCC2)c(=O)[nH]1 | 0.6 | 0 | 0 | 0.8 | 0 | 0
42 | CCN(CC)CCCC(C)Nc1c2ccc(Cl)cc2nc2ccc(OC)cc12 (stereo unspecified) [Mepacrine] | 17.5 | 13.2 | 13.9 | 17.9 | 13.1 | 17.5
43 | COC(=O)c1ccc2c(c1)[nH]c1ncnc(NCCCN3CCCCC3)c12 | 2.6 | 0.1 | 1.6 | 3.7 | 2.2 | 2.8
44 | O=C(c1ccc(F)c(F)c1Nc1ccc(I)cc1F)N1CC(O)([C@@H]2CCCCN2)C1 [Cobimetinib] | 0 | 18.9 | 19.2 | 0 | 19.4 | 0
45 | Cc1noc2c1-c1ccccc1C(c1ccc(Cl)cc1)=N[C@H]2CC(N)=O | 7.1 | 7.1 | 8 | 8.6 | 6.6 | 11
46 | COCCNCc1ccc(-c2cc3nccc(Oc4ccc(NC(=O)C5(C(=O)Nc6ccc(F)cc6)CC5)cc4F)c3s2)nc1 [Sitravatinib] | 2.5 | 1 | 1 | 2.8 | 1.1 | 3.4
